Results reported in patent US4835162A (priority 1987, dated 1989).
Where two headings read alike, the source gives them in different places. For some assays here: At least one read-out could not be matched to a standard name with certainty. For at least one compound, name, drawing or mass did not settle the structure.

How the values were obtained:
rats [1] = conditions: rat, in vivo
[2] = molecular target: nicotinic receptors (rat brain membranes); assay type: binding; conditions: for IC50: read-out: 3H-Nicotine Binding IC50
[3] = molecular target: nicotinic receptors (rat brain membranes); assay type: binding; conditions: for IC50: read-out: 3H-MCC Binding IC50
rectus abdominus muscle = conditions: cited from earlier work
guinea pig ileum = conditions: cited from earlier work
[4] = system: nicotinic receptors (rat brain membranes); assay type: binding; conditions: for IC50: pH 7, read-out: [3H]-nicotine IC50
[5] = molecular target: nicotinic receptors (rat brain membranes); assay type: binding; conditions: read-out: [3H]-MCC IC50
rats [6] = system: rats; parameters: species or system Sprague-Dawley male rats; conditions: rat, in vivo
rats [7] = conditions: rat, in vivo; remark: listed apart in the source
rats [8] = conditions: rat, in vivo; remark: listed apart in the source

SMILES	IC50 [2]	IC50 [3]	IC50 ([3]; pH 7.5)	IC50 ([2]; pH 7.5)	affinity in words [4]	IC50 [4]	IC50 ([5]; pH 7)	also measured
CN(C)CCOC(=O)c1ccccc1 [DMAE benzoate, dimethylaminoethyl benzoate]	1000 nM	–	–	–	–	–	–	seizures, in words (rats [1]): about half of the rats exhibited seizures
CN(C)CCOC(=O)Cc1ccccc1 [DMAE phenylacetate]	70000 nM	7000 nM	–	–	–	–	–	–
CNC(=O)OCC[N+](C)(C)C [MCC, Methylcarbamylcholine]	–	–	6 nM	8 nM	affinity approaching that of (-)-nicotine	8 nM	6 nM	times more potent than acetylcholine or carbamylcholine in contracting rectus abdominus muscle (rectus abdominus muscle): about 5 times; times less potent than carbamylcholine in contracting guinea pig ileum (guinea pig ileum): 40 times; increase in affinity on quaternization of carbamate esters [4]: ~50 fold
C[N+](C)(C)CCOC(=O)c1ccccc1 [TMAE benzoate, benzoylcholine]	80 nM	40 nM	–	–	–	–	–	blockade of nicotine-induced prostration / antagonism, in words (rats [6]): antagonistic to the nicotine-induced prostration; nicotine-induced prostration, in words (rats [6]): the prostration response did not occur; binding affinity for nicotine receptor, in words [2]: very high affinity for brain nicotine receptors
CC(=O)OCC[N+](C)(C)C [acetylcholine]	–	–	5000 nM	60000 nM	–	60000 nM	5000 nM	3H-MCC Binding IC50 ([3]; pH 7.5): about 5×10^-5 M; affinity with 3H-MCC relative to 3H-nicotine ([3]; rat, brain membranes): 10 fold; psychotropic action (prostration), in words (rats [7]): lack of psychotropic activity; 3H-Nicotine Binding IC50 ([2]; pH 7.5): about 5×10^-5 M; affinity of acetylcholine less than (-)-nicotine and MCC [4]: 4 orders of magnitude; Kd ([4]; read-out: Kd value in competition binding): 50000 nM
C[N+](C)(C)CCOC(N)=O [carbamylcholine]	–	–	–	400 nM	relatively high affinity	400 nM	–	behavioral effect, in words (rats [8]): weakness in all limbs and head muscles; IC50 ([5]; brain membranes, pH 7, 30 min): 1000 nM
